Experimental data: PMC10924033
These are yes or no findings as the source states them, for the method shown. In cells and extracts the contact can be indirect. Some results given as binding are weak or reduced against the parent protein; the word gives no strength. For some assays here: Where a sequence is shown, tags or fusion partners need not be part of it.

Chains of the proteins cited; added tags and fusions are not shown.
UniProt Q66HA1: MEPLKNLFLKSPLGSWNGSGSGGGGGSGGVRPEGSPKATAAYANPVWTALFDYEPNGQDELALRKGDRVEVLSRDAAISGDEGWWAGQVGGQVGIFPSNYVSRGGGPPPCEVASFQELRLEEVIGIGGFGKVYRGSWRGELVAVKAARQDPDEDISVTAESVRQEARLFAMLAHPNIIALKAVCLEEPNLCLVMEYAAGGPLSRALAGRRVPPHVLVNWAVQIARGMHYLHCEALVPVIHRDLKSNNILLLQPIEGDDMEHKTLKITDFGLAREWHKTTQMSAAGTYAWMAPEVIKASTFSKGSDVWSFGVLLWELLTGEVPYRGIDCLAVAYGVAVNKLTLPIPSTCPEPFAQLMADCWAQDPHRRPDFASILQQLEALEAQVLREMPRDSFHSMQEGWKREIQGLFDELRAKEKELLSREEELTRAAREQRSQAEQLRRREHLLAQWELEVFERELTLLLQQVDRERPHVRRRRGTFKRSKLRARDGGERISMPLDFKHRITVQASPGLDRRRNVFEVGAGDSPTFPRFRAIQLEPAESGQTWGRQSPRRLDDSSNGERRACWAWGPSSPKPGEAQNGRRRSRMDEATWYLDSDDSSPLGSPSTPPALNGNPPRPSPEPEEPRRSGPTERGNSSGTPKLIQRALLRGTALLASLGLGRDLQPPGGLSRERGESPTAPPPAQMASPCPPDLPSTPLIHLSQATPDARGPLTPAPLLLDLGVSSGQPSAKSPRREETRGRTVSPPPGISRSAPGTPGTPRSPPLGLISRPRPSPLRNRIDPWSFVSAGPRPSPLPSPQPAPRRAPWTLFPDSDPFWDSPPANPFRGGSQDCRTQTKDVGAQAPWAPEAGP
UniProt Q80XI6: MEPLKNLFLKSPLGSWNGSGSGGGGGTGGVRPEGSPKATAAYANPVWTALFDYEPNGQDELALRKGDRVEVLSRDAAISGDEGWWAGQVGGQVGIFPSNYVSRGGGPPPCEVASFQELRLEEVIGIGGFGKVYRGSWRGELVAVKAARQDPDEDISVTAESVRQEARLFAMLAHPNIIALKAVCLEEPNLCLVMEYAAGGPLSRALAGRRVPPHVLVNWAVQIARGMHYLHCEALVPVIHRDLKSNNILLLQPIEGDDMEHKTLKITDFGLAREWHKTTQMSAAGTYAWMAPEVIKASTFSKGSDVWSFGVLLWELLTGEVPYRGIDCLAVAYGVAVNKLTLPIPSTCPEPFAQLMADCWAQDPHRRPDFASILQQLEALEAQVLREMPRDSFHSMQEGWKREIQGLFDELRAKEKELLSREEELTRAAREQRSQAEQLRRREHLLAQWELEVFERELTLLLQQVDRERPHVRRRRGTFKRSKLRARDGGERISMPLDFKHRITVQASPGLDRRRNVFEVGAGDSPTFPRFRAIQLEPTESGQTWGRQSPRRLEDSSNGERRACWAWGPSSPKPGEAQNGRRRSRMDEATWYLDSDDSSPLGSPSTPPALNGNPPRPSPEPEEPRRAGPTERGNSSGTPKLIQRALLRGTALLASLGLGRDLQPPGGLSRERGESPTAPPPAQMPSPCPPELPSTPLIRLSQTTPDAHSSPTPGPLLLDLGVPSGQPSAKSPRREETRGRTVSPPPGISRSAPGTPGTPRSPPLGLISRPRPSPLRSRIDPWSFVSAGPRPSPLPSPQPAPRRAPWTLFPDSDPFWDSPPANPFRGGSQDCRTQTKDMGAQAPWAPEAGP

Columns and labels:
[1] = biological target: T1, PIAS3, endogenous, mouse (mouse (endogenous in cerebral hemispheres)) (UniProt O54714); assay: co-IP; homogenates of mouse cerebral hemispheres, ipsilateral (ischemic) and contralateral, after MCAO/R; immunoblot
T1 sequence: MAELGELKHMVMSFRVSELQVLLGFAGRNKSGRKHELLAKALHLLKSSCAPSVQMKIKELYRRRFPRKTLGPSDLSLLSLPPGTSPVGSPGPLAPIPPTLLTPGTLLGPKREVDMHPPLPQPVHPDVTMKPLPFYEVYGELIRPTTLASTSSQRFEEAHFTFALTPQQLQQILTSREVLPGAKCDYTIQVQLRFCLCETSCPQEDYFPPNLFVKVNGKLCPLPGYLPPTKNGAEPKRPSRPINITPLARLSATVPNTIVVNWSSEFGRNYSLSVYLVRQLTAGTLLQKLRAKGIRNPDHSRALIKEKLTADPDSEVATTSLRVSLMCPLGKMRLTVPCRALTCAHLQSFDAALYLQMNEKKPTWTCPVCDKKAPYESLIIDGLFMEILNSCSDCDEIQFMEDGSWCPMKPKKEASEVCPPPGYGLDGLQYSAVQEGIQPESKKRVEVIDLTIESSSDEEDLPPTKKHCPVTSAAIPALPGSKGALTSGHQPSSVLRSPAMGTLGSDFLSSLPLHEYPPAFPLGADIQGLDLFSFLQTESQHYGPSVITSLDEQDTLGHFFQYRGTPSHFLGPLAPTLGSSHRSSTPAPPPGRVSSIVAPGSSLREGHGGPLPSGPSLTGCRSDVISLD

[2] = biological target: T2, PIAS3, SUMO ligase, endogenous, rat (rat (endogenous in primary cortical neurons and hippocampal CA1)) (UniProt O70260); assay: co-IP; lysates of rat primary cortical neurons infected with Lenti-PINIT or Lenti-NC at DIV 9, OGD/R at DIV 13; immunoblot
T2 sequence: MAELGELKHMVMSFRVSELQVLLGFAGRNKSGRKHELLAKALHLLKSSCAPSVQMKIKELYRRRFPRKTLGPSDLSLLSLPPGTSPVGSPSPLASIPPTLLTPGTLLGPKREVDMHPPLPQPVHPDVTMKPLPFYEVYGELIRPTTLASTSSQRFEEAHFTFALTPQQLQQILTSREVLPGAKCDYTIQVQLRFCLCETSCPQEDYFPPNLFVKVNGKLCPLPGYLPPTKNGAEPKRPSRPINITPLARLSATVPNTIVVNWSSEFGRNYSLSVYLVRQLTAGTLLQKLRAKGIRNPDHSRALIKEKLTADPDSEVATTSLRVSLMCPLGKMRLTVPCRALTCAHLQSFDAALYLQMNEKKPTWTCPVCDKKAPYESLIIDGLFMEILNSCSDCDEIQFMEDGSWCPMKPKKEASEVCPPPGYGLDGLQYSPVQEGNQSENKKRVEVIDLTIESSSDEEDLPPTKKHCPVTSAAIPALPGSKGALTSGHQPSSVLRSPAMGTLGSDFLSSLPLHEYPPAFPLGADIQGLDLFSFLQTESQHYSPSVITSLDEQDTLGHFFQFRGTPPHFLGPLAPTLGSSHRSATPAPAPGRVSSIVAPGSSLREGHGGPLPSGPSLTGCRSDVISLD

[3] = biological target: T2, PIAS3, SUMO ligase, endogenous, rat (rat (endogenous in primary cortical neurons and hippocampal CA1)); assay: co-IP; homogenates of rat hippocampal CA1 five weeks after injection of AAV-PINIT or AAV-NC, 15 min ischemia and six hours of reperfusion; immunoblot
[4] = biological target: T2, PIAS3, SUMO ligase, endogenous, rat (rat (endogenous in primary cortical neurons and hippocampal CA1)); assay: co-IP; homogenates of rat hippocampal CA1, sham and time course of reperfusion after 15 min global ischemia (I/R); IP buffer as in the methods; immunoblot
[5] = biological target: T2, PIAS3, SUMO ligase, endogenous, rat (rat (endogenous in primary cortical neurons and hippocampal CA1)); assay: co-IP; lysates of rat primary cortical neurons, normoxia and time course of reoxygenation after 2 h OGD; IP buffer with 150 mM NaCl, 1% Triton X-100, 0.5% NP-40, overnight at 4 °C, Protein A + G magnetic beads; immunoblot
[6] = biological target: T3, PIAS3 in the HEK293T competition experiment with 133–320 (Fig. 2I) (UniProt O70260); assay: co-IP; HEK293T cells, MLK3-PIAS3 interaction with increasing overexpression of 133–320 (dose-dependent)
T3 sequence: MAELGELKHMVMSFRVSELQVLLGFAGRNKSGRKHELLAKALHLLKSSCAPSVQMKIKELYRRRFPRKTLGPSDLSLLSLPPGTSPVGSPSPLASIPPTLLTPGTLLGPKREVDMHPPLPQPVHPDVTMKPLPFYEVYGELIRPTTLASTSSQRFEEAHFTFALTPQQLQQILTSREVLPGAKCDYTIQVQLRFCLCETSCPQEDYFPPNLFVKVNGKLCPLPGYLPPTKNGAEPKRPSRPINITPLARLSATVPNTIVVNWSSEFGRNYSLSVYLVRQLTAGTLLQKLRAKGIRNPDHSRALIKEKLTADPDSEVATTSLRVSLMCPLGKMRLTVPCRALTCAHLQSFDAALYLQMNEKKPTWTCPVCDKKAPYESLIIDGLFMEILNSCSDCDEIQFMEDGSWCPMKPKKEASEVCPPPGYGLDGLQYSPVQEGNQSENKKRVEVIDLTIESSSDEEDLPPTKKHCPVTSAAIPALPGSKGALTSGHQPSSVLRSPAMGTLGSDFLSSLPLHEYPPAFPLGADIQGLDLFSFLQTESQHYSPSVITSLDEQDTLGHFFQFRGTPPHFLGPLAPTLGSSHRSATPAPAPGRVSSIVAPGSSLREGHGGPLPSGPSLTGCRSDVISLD

[7] = biological target: T4, Myc-tagged full-length rat PIAS3 (Myc-PIAS3 WT) (rat) (UniProt O70260); assay: co-IP; HEK293T cells coexpressing MLK3 with Myc-PIAS3 WT or its truncated mutants (1–500, 1–320, 1–132, 133–320); immunoblot
T4 sequence: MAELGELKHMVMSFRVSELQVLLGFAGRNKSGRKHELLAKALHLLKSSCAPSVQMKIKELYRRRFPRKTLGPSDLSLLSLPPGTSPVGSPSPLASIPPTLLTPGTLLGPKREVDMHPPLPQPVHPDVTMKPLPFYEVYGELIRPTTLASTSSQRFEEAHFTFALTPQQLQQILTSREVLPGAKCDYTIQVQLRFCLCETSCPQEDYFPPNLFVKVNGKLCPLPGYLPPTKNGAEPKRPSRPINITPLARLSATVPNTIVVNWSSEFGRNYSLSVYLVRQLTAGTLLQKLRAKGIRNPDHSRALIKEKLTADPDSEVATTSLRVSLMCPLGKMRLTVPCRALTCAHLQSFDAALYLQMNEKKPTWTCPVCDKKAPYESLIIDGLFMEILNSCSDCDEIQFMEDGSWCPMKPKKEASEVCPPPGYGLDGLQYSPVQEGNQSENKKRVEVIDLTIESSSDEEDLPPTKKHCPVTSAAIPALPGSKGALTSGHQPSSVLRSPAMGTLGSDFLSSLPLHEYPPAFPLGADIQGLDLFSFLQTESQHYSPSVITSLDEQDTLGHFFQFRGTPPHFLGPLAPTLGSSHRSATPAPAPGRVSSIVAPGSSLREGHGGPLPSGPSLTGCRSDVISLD

[8] = biological target: T5, Myc-tagged rat PIAS3 truncated mutant AAs 1–132 (rat) (UniProt O70260); assay: as above
T5 sequence: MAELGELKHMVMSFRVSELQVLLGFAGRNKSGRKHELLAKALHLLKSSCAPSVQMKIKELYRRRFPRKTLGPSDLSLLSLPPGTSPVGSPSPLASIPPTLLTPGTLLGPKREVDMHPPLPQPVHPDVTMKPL

[9] = biological target: T6, Myc-tagged rat PIAS3 truncated mutant AAs 1–320 (rat) (UniProt O70260); assay: as above
T6 sequence: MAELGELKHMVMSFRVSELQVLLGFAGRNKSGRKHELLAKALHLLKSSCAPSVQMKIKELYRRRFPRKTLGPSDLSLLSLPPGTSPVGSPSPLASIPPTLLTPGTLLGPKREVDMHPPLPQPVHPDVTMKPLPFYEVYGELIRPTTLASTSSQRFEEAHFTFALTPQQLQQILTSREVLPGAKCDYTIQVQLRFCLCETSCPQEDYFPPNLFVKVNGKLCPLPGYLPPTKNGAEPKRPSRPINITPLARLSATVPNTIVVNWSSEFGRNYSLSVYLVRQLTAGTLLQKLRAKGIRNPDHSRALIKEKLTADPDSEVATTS

[10] = biological target: T7, Myc-tagged rat PIAS3 truncated mutant AAs 1–500 (rat) (UniProt O70260); assay: as above
T7 sequence: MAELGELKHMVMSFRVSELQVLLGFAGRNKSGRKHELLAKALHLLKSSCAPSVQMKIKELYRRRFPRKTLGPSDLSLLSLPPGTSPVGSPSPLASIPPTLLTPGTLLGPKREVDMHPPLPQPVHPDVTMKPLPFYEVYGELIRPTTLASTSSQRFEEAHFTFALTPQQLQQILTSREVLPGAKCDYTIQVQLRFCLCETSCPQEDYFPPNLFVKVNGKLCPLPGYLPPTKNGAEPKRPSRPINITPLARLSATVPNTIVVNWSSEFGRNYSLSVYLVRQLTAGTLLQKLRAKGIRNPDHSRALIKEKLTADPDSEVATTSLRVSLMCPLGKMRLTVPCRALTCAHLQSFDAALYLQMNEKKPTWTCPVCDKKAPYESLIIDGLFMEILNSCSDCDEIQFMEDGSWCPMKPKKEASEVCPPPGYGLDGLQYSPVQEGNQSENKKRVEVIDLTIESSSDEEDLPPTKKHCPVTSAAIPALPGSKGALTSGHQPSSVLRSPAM

[11] = biological target: T8, PINIT domain of PIAS3, AAs 133–320, Myc- and His-tagged (133–320-Myc-His) (rat) (UniProt O70260); assay: as above
T8 sequence: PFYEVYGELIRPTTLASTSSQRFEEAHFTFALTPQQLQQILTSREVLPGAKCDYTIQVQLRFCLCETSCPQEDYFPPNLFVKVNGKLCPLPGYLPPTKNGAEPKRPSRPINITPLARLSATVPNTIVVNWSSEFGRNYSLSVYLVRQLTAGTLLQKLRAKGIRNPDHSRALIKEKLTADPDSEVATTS

[12] = biological target: T8, PINIT domain of PIAS3, AAs 133–320, Myc- and His-tagged (133–320-Myc-His) (rat); assay: pull-down; His pulldown: His-tagged PIAS3 bait from HEK293T lysate loaded on Ni resin, mixed with cell lysate overexpressing MLK3 at 4 °C for 3 h; washed with 50 mM NaH2PO4, 300 mM NaCl, 60 mM imidazole, pH 8.0; only the target purified
[13] = biological target: Mixed lineage kinase 3 (MLK3), endogenous, rat (rat (endogenous in primary cortical neurons and hippocampal CA1)) (UniProt Q66HA1); assay: co-IP; lysates of rat primary cortical neurons infected with Lenti-PINIT or Lenti-NC at DIV 9, OGD/R at DIV 13; immunoblot
[14] = biological target: Mixed lineage kinase 3 (MLK3), endogenous, rat (rat (endogenous in primary cortical neurons and hippocampal CA1)) (UniProt Q66HA1); assay: co-IP; homogenates of rat hippocampal CA1 five weeks after injection of AAV-PINIT or AAV-NC, 15 min ischemia and six hours of reperfusion; immunoblot

Mixed lineage kinase 3 (MLK3), endogenous, mouse (from UniProt Q80XI6 1-850)
binding [1]: binds

Mixed lineage kinase 3 (MLK3), endogenous, rat (from UniProt Q66HA1 1-850)
binding [2]: binds
binding [3]: binds
binding [4]: binds
binding [5]: binds

Myc-tagged MLK3 (wild type), overexpressed in HEK293T cells (from UniProt Q66HA1 1-850)
binding [6]: binds
binding [7]: binds
binding [8]: no binding
binding [9]: binds
binding [10]: binds
binding [11]: binds
binding [12]: binds

B1: PINIT domain of PIAS3 expressed from lentivirus (Lenti-PINIT) (domain or fragment, UniProt O70260 133-320)
chain: PFYEVYGELIRPTTLASTSSQRFEEAHFTFALTPQQLQQILTSREVLPGAKCDYTIQVQLRFCLCETSCPQEDYFPPNLFVKVNGKLCPLPGYLPPTKNGAEPKRPSRPINITPLARLSATVPNTIVVNWSSEFGRNYSLSVYLVRQLTAGTLLQKLRAKGIRNPDHSRALIKEKLTADPDSEVATTS
binding [13]: binds

B2: PINIT domain of PIAS3 expressed from adeno-associated virus (AAV-PINIT) (domain or fragment, UniProt O70260 133-320)
chain: PFYEVYGELIRPTTLASTSSQRFEEAHFTFALTPQQLQQILTSREVLPGAKCDYTIQVQLRFCLCETSCPQEDYFPPNLFVKVNGKLCPLPGYLPPTKNGAEPKRPSRPINITPLARLSATVPNTIVVNWSSEFGRNYSLSVYLVRQLTAGTLLQKLRAKGIRNPDHSRALIKEKLTADPDSEVATTS
binding [14]: binds
